Results: the antibiotic and cytotoxicity screens of Wong et al. (2023)
The list shows a part of the results.

Experiments:
[1] = tested on: HSkMC (human skeletal muscle cells); assay: cytotoxicity call (relative viability < 0.9); conditions: 10 µM
[2] = tested on: HepG2; assay: cytotoxicity call (relative viability < 0.9); conditions: 10 µM
[3] = tested on: S. aureus RN4220; assay: growth inhibition call (relative growth <= 0.2); conditions: 50 µM

## C[C@@H]1CN([C@@H](C)CO)C(=O)c2cc(NS(C)(=O)=O)ccc2O[C@@H]1CN(C)Cc1ccc(C(=O)Nc2ccccc2N)cc1
[1]
  cytotoxicity call: inactive
[2]
  cytotoxicity call: inactive
[3]
  growth inhibition call: inactive

## CCc1nc2ccc(C(=O)NCCN3CCNC3=O)cn2c1N(CC)Cc1cccc(Br)c1
[1]
  cytotoxicity call: inactive
[2]
  cytotoxicity call: inactive
[3]
  growth inhibition call: inactive

## C[C@@H]1CCCCO[C@@H](CN(C)Cc2ccc3c(c2)OCO3)[C@@H](C)CN([C@H](C)CO)C(=O)c2cc(NC(=O)NC3CCCCC3)ccc2O1
[1]
  cytotoxicity call: inactive
[2]
  cytotoxicity call: inactive
[3]
  growth inhibition call: inactive

## COc1ccc(NC(=O)Nc2ccc3c(c2)C(=O)N([C@H](C)CO)C[C@@H](C)[C@@H](CN(C)S(=O)(=O)c2ccc(F)cc2)OCCCC[C@H](C)O3)cc1
[1]
  cytotoxicity call: inactive
[2]
  cytotoxicity call: inactive
[3]
  growth inhibition call: inactive

## C[C@@H]1CCCCO[C@H](CN(C)Cc2ccc(C(F)(F)F)cc2)[C@H](C)CN([C@@H](C)CO)C(=O)c2cc(NC(=O)Nc3ccc4c(c3)OCO4)ccc2O1
[1]
  cytotoxicity call: inactive
[2]
  cytotoxicity call: active
[3]
  growth inhibition call: inactive

## CCCN(C)C[C@@H]1OCCCC[C@H](C)Oc2ccc(NC(=O)NC3CCCCC3)cc2C(=O)N([C@@H](C)CO)C[C@@H]1C
[1]
  cytotoxicity call: inactive
[2]
  cytotoxicity call: inactive
[3]
  growth inhibition call: inactive

## C[C@@H]1CN([C@H](C)CO)C(=O)Cc2cc(NS(=O)(=O)c3cn(C)cn3)ccc2O[C@@H]1CN(C)Cc1ccc(C(=O)O)cc1
[1]
  cytotoxicity call: inactive
[2]
  cytotoxicity call: inactive
[3]
  growth inhibition call: inactive

## C[C@@H]1CN([C@H](C)CO)C(=O)Cc2cc(NC(=O)CCN3CCOCC3)ccc2O[C@@H]1CN(C)CC1CC1
[1]
  cytotoxicity call: inactive
[2]
  cytotoxicity call: inactive
[3]
  growth inhibition call: inactive

## CN1C(=O)c2cc(NC(=O)c3cccs3)ccc2OC[C@@H]2O[C@@H](CC(=O)NCCN3CCCCC3)CC[C@H]21
[1]
  cytotoxicity call: inactive
[2]
  cytotoxicity call: inactive
[3]
  growth inhibition call: inactive

## Cc1noc(C)c1NC(=O)N(C)C[C@H]1Oc2c(NC(=O)c3ccncc3)cccc2C(=O)N([C@@H](C)CO)C[C@H]1C
[1]
  cytotoxicity call: inactive
[2]
  cytotoxicity call: inactive
[3]
  growth inhibition call: inactive

## C[C@H](CO)N1C[C@H](C)[C@H](CN(C)Cc2ccc3c(c2)OCO3)OCCCC[C@H](C)Oc2ccc(NC(=O)Nc3ccccc3)cc2C1=O
[1]
  cytotoxicity call: inactive
[2]
  cytotoxicity call: active
[3]
  growth inhibition call: inactive

## CN1CCN(C(=O)C[C@H]2CC[C@@H]3[C@H](COC[C@H](O)CN3C(=O)Nc3cc(Cl)cc(Cl)c3)O2)CC1
[1]
  cytotoxicity call: inactive
[2]
  cytotoxicity call: inactive
[3]
  growth inhibition call: inactive

## CN1C(=O)c2cc(NS(=O)(=O)c3ccc(F)cc3)ccc2OC[C@@H]2O[C@H](CC(=O)NCC(F)(F)F)CC[C@H]21
[1]
  cytotoxicity call: inactive
[2]
  cytotoxicity call: inactive
[3]
  growth inhibition call: inactive

## COc1ccccc1-c1ccc2c(c1)O[C@@H](CN(C)CC1CCOCC1)[C@H](C)CN([C@@H](C)CO)S2(=O)=O
[1]
  cytotoxicity call: inactive
[2]
  cytotoxicity call: inactive
[3]
  growth inhibition call: inactive

## COc1ccc(NC(=O)N(C)C[C@H]2OCCCC[C@H](C)Oc3ccc(NC(=O)Nc4ccccc4)cc3C(=O)N([C@@H](C)CO)C[C@@H]2C)cc1
[1]
  cytotoxicity call: inactive
[2]
  cytotoxicity call: inactive
[3]
  growth inhibition call: inactive

## C[C@@H]1CN([C@H](C)CO)C(=O)c2cccc(NC(=O)C3CCOCC3)c2O[C@H]1CN(C)Cc1ccc(C(=O)O)cc1
[1]
  cytotoxicity call: inactive
[2]
  cytotoxicity call: inactive
[3]
  growth inhibition call: inactive

## O=C(CN1CCOCC1)N[C@H]1CC[C@H](CCn2cc(C3CCCC3)nn2)O[C@H]1CO
[1]
  cytotoxicity call: inactive
[2]
  cytotoxicity call: inactive
[3]
  growth inhibition call: inactive

## COc1ccc(S(=O)(=O)Nc2ccc3c(c2)C(=O)N([C@@H](C)CO)C[C@H](C)[C@@H](CN(C)S(=O)(=O)c2ccc(Cl)cc2)OCCCC[C@H](C)O3)cc1
[1]
  cytotoxicity call: inactive
[2]
  cytotoxicity call: active
[3]
  growth inhibition call: inactive

## C[C@H](CO)N1C[C@H](C)[C@@H](CN(C)S(C)(=O)=O)Oc2ccc(NC(=O)Nc3ccc(F)cc3)cc2C1=O
[1]
  cytotoxicity call: inactive
[2]
  cytotoxicity call: inactive
[3]
  growth inhibition call: inactive

## C[C@@H]1CN([C@@H](C)CO)C(=O)c2cc(NS(C)(=O)=O)ccc2O[C@@H](C)CCCCO[C@@H]1CN(C)S(=O)(=O)c1cn(C)cn1
[1]
  cytotoxicity call: inactive
[2]
  cytotoxicity call: inactive
[3]
  growth inhibition call: inactive

## N[C@H]1CCCN(Cc2ccc(F)cc2)C1
[1]
  cytotoxicity call: inactive
[2]
  cytotoxicity call: inactive
[3]
  growth inhibition call: inactive

## CCOc1ccc2nc(S(N)(=O)=O)sc2c1
[1]
  cytotoxicity call: inactive
[2]
  cytotoxicity call: inactive
[3]
  growth inhibition call: inactive

## COc1ccc(C#Cc2cccc(-c3nc(C(=O)N[C@@H]4CCN(Cc5ccccc5)C4)cc4c3[C@H](CCO)N(S(=O)C(C)(C)C)C4)c2)cc1OC (some centres undefined)
[1]
  cytotoxicity call: inactive
[2]
  cytotoxicity call: inactive
[3]
  growth inhibition call: inactive

## COCCNC(=O)C[C@@H]1C[C@H]2c3cc(NC(=O)Nc4ccc(C(F)(F)F)cc4)ccc3O[C@H]2[C@H](CO)O1
[1]
  cytotoxicity call: inactive
[2]
  cytotoxicity call: inactive
[3]
  growth inhibition call: inactive

## Cc1ccc(S(=O)(=O)Nc2ccc3c(c2)CC(=O)N([C@@H](C)CO)C[C@@H](C)[C@@H](CN(C)Cc2ccc(C(F)(F)F)cc2)O3)cc1
[1]
  cytotoxicity call: active
[2]
  cytotoxicity call: active
[3]
  growth inhibition call: inactive

## C[C@H]1CN([C@@H](C)CO)C(=O)c2cc(C#Cc3ccccc3F)cnc2O[C@H]1CN(C)S(=O)(=O)c1ccccc1F
[1]
  cytotoxicity call: inactive
[2]
  cytotoxicity call: inactive
[3]
  growth inhibition call: inactive

## CN(C)C(=O)C[C@H]1CC[C@H]2[C@@H](COc3ccc(NS(=O)(=O)c4cccc(F)c4)cc3C(=O)N2C)O1
[1]
  cytotoxicity call: inactive
[2]
  cytotoxicity call: inactive
[3]
  growth inhibition call: inactive

## CC(C)C[C@H](NC(=O)[C@@H](Cc1c[nH]c2ccccc12)NC(=O)[C@H](Cc1ccc(O)cc1)NC(=O)[C@H](CO)NC(=O)[C@H](Cc1c[nH]c2ccccc12)NC(=O)[C@H](Cc1cnc[nH]1)NC(=O)[C@@H]1CCC(=O)N1)C(=O)N[C@@H](CCCNC(=N)N)C(=O)N1CCC[C@H]1C(=O)NCC(N)=O
[1]
  cytotoxicity call: inactive
[2]
  cytotoxicity call: inactive
[3]
  growth inhibition call: inactive

## O=C(/C=C/c1cccc(-c2cn(-c3ccc(C[C@H]4C(=O)O[C@@H](Cc5ccccc5)[C@H]5[C@@H]6C=CCCC=C6CN54)cc3)nn2)c1)NO
[1]
  cytotoxicity call: inactive
[2]
  cytotoxicity call: inactive
[3]
  growth inhibition call: inactive

## CCOC(=O)/C=C1\SC(=O)NC1=O
[1]
  cytotoxicity call: inactive
[2]
  cytotoxicity call: inactive
[3]
  growth inhibition call: inactive

## CC(C)C(=O)Nc1ccc([N+](=O)[O-])c(C(F)(F)F)c1
[1]
  cytotoxicity call: inactive
[2]
  cytotoxicity call: active
[3]
  growth inhibition call: inactive

## CCC(=O)N[C@@H]1CC[C@@H](CC(=O)OC)O[C@H]1CO
[1]
  cytotoxicity call: inactive
[2]
  cytotoxicity call: inactive
[3]
  growth inhibition call: inactive

## COc1ccc(S(=O)(=O)N(C)C[C@@H]2OCCCC[C@@H](C)Oc3ccc(NC(=O)Nc4ccc(F)cc4)cc3C(=O)N([C@H](C)CO)C[C@@H]2C)cc1
[1]
  cytotoxicity call: inactive
[2]
  cytotoxicity call: inactive
[3]
  growth inhibition call: inactive

## Oc1ccccc1/N=C/c1ccncc1
[1]
  cytotoxicity call: inactive
[2]
  cytotoxicity call: inactive
[3]
  growth inhibition call: inactive

## Cn1cnc(CCNC(=O)C[C@@H]2CC[C@@H]3[C@H](COC[C@@H](O)CN3C(=O)C3CC3)O2)c1
[1]
  cytotoxicity call: inactive
[2]
  cytotoxicity call: inactive
[3]
  growth inhibition call: inactive

## COc1ccc(NC(=O)Nc2ccc3c(c2)C(=O)N([C@H](C)CO)C[C@H](C)[C@@H](CN(C)Cc2ccc4c(c2)OCO4)OCCCC[C@@H](C)O3)cc1
[1]
  cytotoxicity call: inactive
[2]
  cytotoxicity call: inactive
[3]
  growth inhibition call: inactive

## C[C@H]1CN([C@@H](C)CO)S(=O)(=O)c2ccc(C#Cc3ccccc3)cc2O[C@H]1CN(C)S(C)(=O)=O
[1]
  cytotoxicity call: inactive
[2]
  cytotoxicity call: inactive
[3]
  growth inhibition call: inactive

## COCC(=O)N(C)C[C@H]1Oc2cc(C#CC(C)(C)O)ccc2S(=O)(=O)N([C@H](C)CO)C[C@H]1C
[1]
  cytotoxicity call: inactive
[2]
  cytotoxicity call: inactive
[3]
  growth inhibition call: inactive
